Data from PubChem BioAssay AID651820 (National Center for Advancing Translational Sciences (NCATS), 2012).
Out of some 340,000 compounds screened, about 12,000 (3.5%) were called active. Inconclusive means that the source gave no clear call. Such entries were picked first, then a sample of the others. The call rests on the fitted dose curve; in most records, active means well fitted inhibition curve with a large enough effect; inconclusive means small, poorly fitted or top-dose-only effect, or another doubt; inactive means no such curve, though single readings can be large or run the other way. No potency is given beside an inconclusive call; the fits are too rough.
Potency means the concentration at half of the fitted maximal effect; tags describe the fitted curve by direction and shape.

Assay: qHTS Assay for Inhibitors of Hepatitis C Virus (HCV)
Settings: Huh7.5.1 HCVcc-Cre (HCVcc is cell-culture hepatitis C virus) infection, luciferase reporter, 44 h; series mostly up to 41.8 µM
Summary of the method: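 A cell-based infection assay in which seeded cells (1,000 per well) receive test compound after 4 h, are inoculated with HCVcc-Cre at approximately 0.5 moi, and are incubated 44 h before luminescence detection.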
With N#Cc1ccccc1COc1ccc(/C=C/C(=O)O)cc1 the Potency was “inactive”.
In the case of CCn1ncc(CN2CCC(C(=O)Nc3cccc(-c4cccc(F)c4)c3)CC2)c1C, the Potency was inconclusive [inhibitor, partial curve].
With Cc1csc2ncnc(N3CCN(C(=S)Nc4ccc(F)cc4F)CC3)c12 the Potency was inconclusive [inhibitor, single point].
For CCN(CC)C(=O)[C@H]1CC(CC(=O)NCC23CC4CC(CC(C4)C2)C3)C(=O)N2CCc3c([nH]c4ccccc34)[C@]12C (stereo not given in full), the Potency was inconclusive [inhibitor, single point].
In the case of O=C(c1ccco1)N(CCC(c1ccccc1)c1ccco1)Cc1ccccc1 (stereo not given), the Potency was “inactive”.
With CN1C(=O)S/C(=C\c2ccccc2OCc2ccc(C(=O)O)cc2)C1=O the Potency was “inactive”.
In the case of COc1ccc(C(=O)c2ccc(N3CCN(C(=O)c4ccc(F)cc4)CC3)c(F)c2)cc1Br, the Potency was inconclusive [inhibitor, full curve, poor fit].
In the case of COc1ccc(CCNC(=O)c2cc(-c3ccc(C)cc3O)n[nH]2)cc1OC, the Potency was inconclusive [inhibitor, single point].
For CCOc1cc2[nH]c(=O)n(CCCN3CCN(c4ccc(OC)cc4)CC3)c(=O)c2cc1OCC, the Potency was inconclusive [inhibitor, single point].
For O=C(CNC(=O)OCc1ccccc1)NC1CCCCCC1, the Potency was “inactive”.
With CCOc1ccc(-c2cnc3n2CCC3)cc1 the Potency was inconclusive [inhibitor, single point].
With CCN(CC)S(=O)(=O)c1ccc(Oc2ccccc2OC)cc1 the Potency was inconclusive [inhibitor, partial curve].
In the case of Cc1ccc(N(CC(=O)NCc2ccc(F)cc2)C(=O)CCC(=O)Nc2ccccn2)cc1C, the Potency was inconclusive [inhibitor, single point].
In the case of O=C(CCl)N=c1sccn1Cc1cccc2ccccc12, the Potency was active: 3.55 µM.
With COc1ccccc1CNC(=O)c1cc(-c2ccccc2C)nn1CC1CC(c2cccnc2)=NO1 (stereo not given) the Potency was inconclusive [inhibitor, full curve, poor fit].
With N#CCSc1nc2c(c(=O)n1Cc1ccco1)C1(CCCC1)Cc1ccccc1-2 the Potency was inconclusive [inhibitor, single point].
For COc1cccc(-c2csc(N3CCN(C(=O)Nc4ccc(F)cc4)CC3)n2)c1, the Potency was active: 7.94 µM.
In the case of NCc1oc(-c2ccccc2)cc1C(=O)O, the Potency was “inactive”.
In the case of COc1ccc(-n2cc(CN(C)C(C)c3ccncn3)c(-c3cccc(F)c3)n2)cc1 (stereo not given), the Potency was inconclusive [inhibitor, single point].
In the case of COc1ccc(NS(=O)(=O)c2cc(NC(=O)c3ccccn3)ccc2OC)cc1Br, the Potency was inconclusive [inhibitor, single point].
With COc1ccc(/C=C(/C(=O)Nc2ccccc2C(=O)N2CCCC2)c2ccccc2)cc1 the Potency was inconclusive [inhibitor, single point].
With COc1cccc(/C=C(/CC(=O)Nc2ccc(N3CCOCC3)cc2)c2nc3ccccc3s2)c1 the Potency was inconclusive [inhibitor, single point].
In the case of COc1ccc(OCC(=O)N/N=C/C(C)=C/c2ccco2)c(Br)c1, the Potency was inconclusive [inhibitor, partial curve].
For CCCCCCCOc1ccc(-c2ccc(C#N)cn2)cc1, the Potency was “inactive”.
In the case of COc1cccc(C(=O)Nc2cc3c(cc2Cl)OCCCO3)c1, the Potency was “inactive”.
In the case of CC(=O)c1ccc(OCc2ccc(C(=O)c3ccccc3)cc2)cc1, the Potency was inconclusive [inhibitor, single point].
With CC1CCN(C(c2cccs2)c2nnnn2Cc2ccccc2)CC1 (stereo not given) the Potency was “inactive”.
In the case of COc1cc(CNc2ccc(C)c(C)c2)cc(OC)c1OC, the Potency was inconclusive [inhibitor, single point].
With CCc1cc2c(cc3c(=O)n(CC(=O)NCCCN4CCCCCC4)nc(CC)n32)s1 the Potency was inconclusive [inhibitor, partial curve].
In the case of COc1ccc(CNC(=O)CN2CCC(C(=O)c3ccc(OC)cc3)CC2)cc1, the Potency was active: 12.6 µM.
In the case of CCN1CCN(C(=O)/C=C/c2ccc(C)cc2)CC1, the Potency was inconclusive [inhibitor, single point].
With CCOc1cccc(N2C(=O)CC(N3CCN(c4nc5ccccc5s4)CC3)C2=O)c1 (stereo not given) the Potency was “inactive”.
With S=C(NCC1CCCO1)N1CCN(c2cccc(Cl)c2)CC1 (stereo not given) the Potency was inconclusive [inhibitor, single point].
In the case of COc1ccc(C(=O)OCCN2CCCCC2)cc1, the Potency was “inactive”.
For Cc1ccc(NC(=O)c2ccc3c(=O)n4c(nc3c2)CCCCC4)cc1F, the Potency was active: 10 µM.
With CCC1(c2ccccc2)NC(=O)N(CC(=O)Nc2ccc(S(=O)(=O)N3CC(C)CC(C)C3)cc2)C1=O (stereo not given) the Potency was inconclusive [inhibitor, single point].
With Cc1ccc(NS(=O)(=O)c2cc3c4c(c2)CC(=O)N4CCC3)cc1C the Potency was inconclusive [inhibitor, partial curve].
For COc1ccc(S(=O)(=O)N2CCN(C(=O)C3CC3)CC2)cc1Br, the Potency was “inactive”.
In the case of O=C(NC(=S)Nc1ccc(S(=O)(=O)N2CCCCC2)cc1)c1cccs1, the Potency was inconclusive [inhibitor, full curve, poor fit].
For Cc1onc(-c2ccccc2Cl)c1C(=O)NNC(=O)c1ccccc1F, the Potency was “inactive”.
With Cc1ccc(N=Cc2c(O)n(-c3ccc4c(c3)OCO4)c(=O)c3ccccc23)cc1 the Potency was inconclusive [inhibitor, full curve, poor fit].
For COc1ccc(N2CCOCC2)c(NC(=O)COc2cccc(C)c2C)c1, the Potency was inconclusive [inhibitor, single point].
With COc1ccccc1C(=O)NC(CCSC)C(=O)NNC(=O)C(C)Oc1ccccc1F (stereo not given) the Potency was “inactive”.
With C/C(=N/NC(=O)c1cc(-c2ccccc2)nc2c(Cl)cccc12)c1cccnc1 the Potency was inconclusive [inhibitor, single point].
In the case of CCOc1ccc(N=Nc2c(=O)[nH]n3c(=O)cc(C)[nH]c23)cc1, the Potency was inconclusive [inhibitor, single point].
